Source: patent US4472304A, “(Amido)N-substituted bleomycins, salts thereof and process for preparation thereof” (Nippon Kayaku Kabushiki Kaisha, priority 1981, dated 1984)
The name of at least one read-out is uncertain.

Target: T1, bleomycin-inactivating enzyme (Rattus norvegicus, UniProt P70645)
T1 sequence (P70645 1-454): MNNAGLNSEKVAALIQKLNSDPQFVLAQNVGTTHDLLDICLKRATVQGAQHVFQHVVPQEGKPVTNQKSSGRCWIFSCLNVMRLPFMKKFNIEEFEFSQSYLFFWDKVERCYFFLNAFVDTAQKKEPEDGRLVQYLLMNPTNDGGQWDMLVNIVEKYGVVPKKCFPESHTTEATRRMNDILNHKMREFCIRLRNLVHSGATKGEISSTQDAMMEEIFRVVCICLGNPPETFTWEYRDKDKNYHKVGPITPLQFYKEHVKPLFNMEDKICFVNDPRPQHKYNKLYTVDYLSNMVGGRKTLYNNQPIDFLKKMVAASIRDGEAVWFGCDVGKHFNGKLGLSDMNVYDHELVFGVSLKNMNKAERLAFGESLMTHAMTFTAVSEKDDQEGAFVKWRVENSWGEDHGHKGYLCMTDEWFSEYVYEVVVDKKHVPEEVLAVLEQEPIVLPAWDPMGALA
Conditions: rated under conditions where inactivation of bleomycin B2 is 50%; 37° C., 40 minutes; residual activity against M. smegmatis ATCC 607

Compound	Resistance of Cu-free compound against inactivating enzyme (degree of inactivation)
Cc1c(N)nc(C(CC(N)=O)NCC(N)C(=O)NCc2cccnc2)nc1C(=O)NC(C(=O)NC(C)C(O)C(C)C(=O)NC(C(=O)NCCc1nc(-c2nc(C(=O)NCCCCNC(=N)N)cs2)cs1)C(C)O)C(OC1OC(CO)C(O)C(O)C1OC1OC(CO)C(O)C(OC(N)=O)C1O)c1cnc[nH]1 (centres unmarked) [Compound 19, 4-Guanidinobutylamino-(amido)N--[3-pyridylmethyl]-BLM]	++ (25 to 34%)
CCCCCCCCCCCCNC(=O)C(N)CNC(CC(N)=O)c1nc(N)c(C)c(C(=O)NC(C(=O)NC(C)C(O)C(C)C(=O)NC(C(=O)NCCc2nc(-c3nc(C(=O)NCCCNC(C)c4ccccc4)cs3)cs2)C(C)O)C(OC2OC(CO)C(O)C(O)C2OC2OC(CO)C(O)C(OC(N)=O)C2O)c2cnc[nH]2)n1 [Compound 26, 3-((S)-1'-phenylethylamino)propylamino-(amido)N--[lauryl]-BLM]	++++ (5 to 14%)
COc1ccc2[nH]cc(CCNC(=O)C(N)CNC(CC(N)=O)c3nc(N)c(C)c(C(=O)NC(C(=O)NC(C)C(O)C(C)C(=O)NC(C(=O)NCCc4nc(-c5nc(C(=O)NCCCNC(C)c6ccccc6)cs5)cs4)C(C)O)C(OC4OC(CO)C(O)C(O)C4OC4OC(CO)C(O)C(OC(N)=O)C4O)c4cnc[nH]4)n3)c2c1 [Compound 28, 3-((S)-1'-phenylethylamino)propylamino-(amido)N--[5-methyoxyindol-3-ylethyl]-BLM]	++++ (5 to 14%)
Cc1c(N)nc(C(CC(N)=O)NCC(N)C(=O)NC(c2ccccc2)c2ccccc2)nc1C(=O)NC(C(=O)NC(C)C(O)C(C)C(=O)NC(C(=O)NCCc1nc(-c2nc(C(=O)NCCCNC(C)c3ccccc3)cs2)cs1)C(C)O)C(OC1OC(CO)C(O)C(O)C1OC1OC(CO)C(O)C(OC(N)=O)C1O)c1cnc[nH]1 [Compound 31, 3-((S)-1'-phenylethylamino)propylamino-(amido)N--[diphenylmethyl]-BLM]	+++++ (less than 5%)
Cc1c(N)nc(C(CC(N)=O)NCC(N)C(=O)NCCCNC(C)c2ccccc2)nc1C(=O)NC(C(=O)NC(C)C(O)C(C)C(=O)NC(C(=O)NCCc1nc(-c2nc(C(=O)NCCCN(C)CCCNCc3ccc(Cl)cc3)cs2)cs1)C(C)O)C(OC1OC(CO)C(O)C(O)C1OC1OC(CO)C(O)C(OC(N)=O)C1O)c1cnc[nH]1 [Compound 39, 3-{N--methyl-N--[3-(p-chlorobenzyl)aminopropyl]amino}-propylamino-(amino)N--[3-(S)-1'-phenylethyl)aminopropyl]-BLM]	+++++ (less than 5%)
CCCCCCCCNC(=O)C(N)CNC(CC(N)=O)c1nc(N)c(C)c(C(=O)NC(C(=O)NC(C)C(O)C(C)C(=O)NC(C(=O)NCCc2nc(-c3nc(C(=O)NCCCN(C)CCCNCc4ccc(Cl)cc4)cs3)cs2)C(C)O)C(OC2OC(CO)C(O)C(O)C2OC2OC(CO)C(O)C(OC(N)=O)C2O)c2cnc[nH]2)n1 (centres unmarked) [Compound 40, 3-{N--methyl-N--[3-(p-chlorobenzyl)aminopropyl]amino}-propylamino-(amido)N--[octyl]-BLM]	+++ (15 to 24%)
Cc1c(N)nc(C(CC(N)=O)NCC(N)C(=O)NCCCNC(C)c2ccccc2)nc1C(=O)NC(C(=O)NC(C)C(O)C(C)C(=O)NC(C(=O)NCCc1nc(-c2nc(C(=O)NCCCN(C)CCCNCCc3ccc(Cl)cc3)cs2)cs1)C(C)O)C(OC1OC(CO)C(O)C(O)C1OC1OC(CO)C(O)C(OC(N)=O)C1O)c1cnc[nH]1 [Compound 43, 3-{N--methyl-N--[3-(2-(p-chlorophenyl)ethyl)aminopropyl]amino}-propylamino-(amido)N--[3-((S)-1'-phenylethyl)aminopropyl]-BLM]	+++++ (less than 5%)
CCCCNCCCN(C)CCCNC(=O)C(N)CNC(CC(N)=O)c1nc(N)c(C)c(C(=O)NC(C(=O)NC(C)C(O)C(C)C(=O)NC(C(=O)NCCc2nc(-c3nc(C(=O)NCCC[N+](C)(CCCN(Cc4ccccc4)Cc4ccccc4)Cc4ccccc4)cs3)cs2)C(C)O)C(OC2OC(CO)C(O)C(O)C2OC2OC(CO)C(O)C(OC(N)=O)C2O)c2cnc[nH]2)n1 (centres unmarked) [Compound 50, 3-{N--methyl-N--benzyl-N--[3-(dibenzylamino)propyl]amino}-propylamino-(amido)N--[3-[N--methyl-N--(3-n-butylaminopropyl)]-aminopropyl]-BLM]	++++ (5 to 14%)
CCCCN(CCCC)CCCNC(=O)C(N)CNC(CC(N)=O)c1nc(N)c(C)c(C(=O)NC(C(=O)NC(C)C(O)C(C)C(=O)NC(C(=O)NCCc2nc(-c3nc(C(=O)NCCC[N+](C)(C)CCCN(Cc4ccccc4)Cc4ccccc4)cs3)cs2)C(C)O)C(OC2OC(CO)C(O)C(O)C2OC2OC(CO)C(O)C(OC(N)=O)C2O)c2cnc[nH]2)n1 (centres unmarked) [Compound 54]	++++ (5 to 14%)
CCCCCCCCNC(=O)C(N)CNC(CC(N)=O)c1nc(N)c(C)c(C(=O)NC(C(=O)NC(C)C(O)C(C)C(=O)NC(C(=O)NCCc2nc(-c3nc(C(=O)NCCCN(C)CCCNCC4CCCCCCC4)cs3)cs2)C(C)O)C(OC2OC(CO)C(O)C(O)C2OC2OC(CO)C(O)C(OC(N)=O)C2O)c2cnc[nH]2)n1 (centres unmarked) [Compound 59, 3-{N--methyl-N--[3-(cyclooctylmethylamino)propyl]amino}propyl-amino-(amido)N--[octyl]-BLM]	+++ (15 to 24%)
CCCCCCCCNC(=O)C(N)CNC(CC(N)=O)c1nc(N)c(C)c(C(=O)NC(C(=O)NC(C)C(O)C(C)C(=O)NC(C(=O)NCCc2nc(-c3nc(C(=O)NCCCN(C)CCCNCc4ccc(C#N)cc4)cs3)cs2)C(C)O)C(OC2OC(CO)C(O)C(O)C2OC2OC(CO)C(O)C(OC(N)=O)C2O)c2cnc[nH]2)n1 (centres unmarked) [Compound 62, 3-{N--methyl-N--[3-(p-cyanobenzylamino)propyl]amino}propylamino-(amido)N--[octyl]-BLM]	+++ (15 to 24%)
